Data: ChEMBL document CHEMBL4888484, “Replenishing the malaria drug discovery pipeline: Screening and hit evaluation of the MMV Hit Generation Library 1 (HGL1) against asexual blood stage Plasmodium falciparum ,using a nano luciferase reporter read-out” (2022)
About 540 (0.36%) of roughly 150,000 compounds showed an effect of 50% or more. The list shows a part of the results.

test system: Plasmodium falciparum; experiment: Primary screen in NF54 nanoGlo assay, in single point, at 2uM, 72h; a lower Z score goes with more inhibition; assay type: functional, Erythrocyte; conditions: timepoint 72 hour

Row | Structure (SMILES) | % Inhibition [%] | Z score
1 | Cc1ccc(-n2c(-c3ccccc3)nnc2-c2ccco2)cc1 | -35 | 4.06
2 | Cc1c(NC(=O)CNCc2ccco2)c(=O)n(-c2ccccc2)n1C | -3 | 0.43
3 | CC(C)c1cnc(-c2ccc(NC(=O)CCc3cscn3)cc2)o1 | -1 | 0.08
4 | O=C(CN1CCCS1(=O)=O)NCC1(C2CC2)CC1 | -6 | 0.88
5 | Cc1ccc(-n2ncnc2[C@@H]2CCCN2C(N)=O)cc1C | 10 | -1.98
6 | CC(C)NC(=O)Cn1ccnc1CCN1C(=O)c2ccccc2C1=O | 33 | -4.76
7 | CCOC(=O)c1nn(-c2cccnc2)c2ccccc2c1=O | 29 | -3.97
8 | COc1ccc(C(=O)Cn2cn[n+](CC(=O)c3ccc(OC)cc3)c2)cc1 | -10 | 1.19
9 | CCOC(=O)c1cc(NC(=O)[C@@H](NC(=O)C(C)(C)C)C(C)C)[nH]n1 | -7 | 1.1
10 | c1ccc(N2CCN(Cc3ccncc3CN3CCN(c4ccccn4)CC3)CC2)nc1 | -3 | 0.59
11 | O=C(C1CCC1)N1CCN(Cc2ccccc2)c2ncccc21 | -9 | 1.1
12 | Cc1ccc(C(=O)N2CC[C@H](n3ccnn3)C2)s1 | -3 | 0.39
13 | Cc1nccc(-c2ccccc2)c1C(=O)NCc1n[nH]c(=O)[nH]1 | -10 | 1.07
14 | Cc1ccc(CN(C)C(=O)NC2CCOC3(CCS(=O)(=O)C3)C2)s1 (configuration not stated) | -10 | 1.32
15 | CC(C)(C)NCCOCCOc1ccc(F)cc1 | -2 | 0.38
16 | COCCNC1=Nc2ncccc2NC12CCN(C(=O)Cc1c(F)cccc1Cl)CC2 | -4 | 0.62
17 | Cc1nonc1OCCn1cc([C@H]2CCOC2)nn1 | 2 | -0.34
18 | COc1ccc(C(=O)O)nc1-c1ccnc2[nH]ccc12 | 10 | -1.37
19 | C[C@@H]1CN(C(=O)NCCCNc2cccnc2)C[C@H](C)O1 | -3 | 0.28
20 | Cc1cccc(-c2nc(N)nc3c2CN(C(=O)c2cccc(N)c2)[C@H]3C)c1 | 1 | -0.07
21 | Cc1nc(CN(C)C[C@H]2CCCCN2C)n(C)c1C | 4 | -0.43
22 | O=C(O)COc1ccc(Cl)cc1CN1CCc2[nH]nc(C(=O)O)c2C1 | -28 | 2.79

Row | Structure (SMILES) | % Inhibition [%] | Z score
23 | OCCN(CCO)c1ccc(C(c2ccccc2Cl)c2ccc(N(CCO)CCO)cc2Cl)c(Cl)c1 | -9 | 1.44
24 | COCCC1(c2noc(C3CCOCC3)n2)CCN(S(=O)(=O)N(C)C)CC1 | -16 | 2.05
25 | CCNC(=O)C[C@H]1CCCN1Cc1nc2ccccc2c(=O)[nH]1 | 0 | -0.09
26 | CCCCNC(=O)c1ccc(CN2C(=O)CCn3nc(-c4ccc(OC)cc4)cc32)cc1 | 6 | -0.73
27 | CCc1cc(CC)nc(NCc2ccc[nH]c2=O)n1 | -5 | 0.77
28 | CCCOc1ccc(CN(C)C)cc1C(=O)OC | 11 | -1.47
29 | O=C(CC[C@H]1CCCN(CCCn2cccn2)C1)N1CCN(c2ccccn2)CC1 | 10 | -1.23
30 | O=S(=O)(c1ccccc1)N1CCC(F)(c2nc(-c3ccncc3)no2)CC1 | -11 | 1.54
31 | Cc1ccccc1C(=O)Nc1c(C#N)c(-c2ccccc2)c(-c2ccccc2)n1Cc1ccccc1 | -5 | 0.79
32 | COc1cccc(C(=O)N(CC(=O)O)CC(C)(C)C)c1C | 2 | -0.26
33 | CC(=O)CCc1c(-c2ccc(C)cc2)c2ccccc2n1S(=O)(=O)c1ccc(C)cc1 | -6 | 0.68
34 | Cc1nc(C2CCN(C(=O)[C@H]3C[C@@H]3CC(C)C)C2)n[nH]1 (some centres not stated) | -4 | 0.54
35 | CN(C)C(=O)c1ccc2c(c1)N(CC(=O)N1CCN(c3ccccc3)CC1)C(=O)CO2 | -8 | 1.49
36 | O=C(NCc1ccco1)c1nn[nH]c1Nc1cccc(F)c1 | -19 | 3.11
37 | CC(C#N)N1CCCC(NC(=O)OC(C)(C)C)C1 (configuration not stated) | -13 | 1.45
38 | Cc1cc(CCNC(=O)c2cccs2)nn1C | -8 | 1.61
39 | COCCc1noc(-c2nc(-c3ccc(C)cc3)no2)n1 | -10 | 1.57
40 | O[C@@H](CNc1ccncc1Br)CN1CCOCC1 | -4 | 0.68
41 | O=C(c1ccc(Br)o1)N1CCCCCCC1 | 1 | -0.16
42 | CCC(CC)C(=O)N1CCC2(CC1)Nc1ccc(C)c(C)c1-n1cccc12 | -13 | 1.76
43 | CCOc1ccccc1NC(=O)C(=O)N1CCCN(C(C)C)CC1 | -8 | 0.79
44 | O=C(Nc1ncc(Cc2ccccc2)s1)C1CC2CCC1C2 (configuration not stated) | -6 | 0.86

Row | Structure (SMILES) | % Inhibition [%] | Z score
45 | CCc1cc(N2CCN(C(=O)c3ccc(C)cc3)CC2)nc2nnc(C)n12 | -10 | 1.36
46 | C=CCNC(=O)Nc1ccc(N2CCCN(Cc3cc(OC)cc(OC)c3)C2=O)cc1 | -2 | 0.21
47 | CCc1ccc(NC(=O)Cn2c(=O)n(CC)c(=O)c3sc(N4CCCC4)nc32)cc1 | -21 | 1.84
48 | Cc1cc(NC(=O)Cn2cc(-c3ncccc3C(=O)N(C)C)cn2)n(C)n1 | -7 | 1.12
49 | Cc1noc(C)c1CN1C(=O)[C@@H]2CC[C@H]1CN(C(=O)CCn1cncn1)C2 | 8 | -1.27
50 | CC(C)C(=O)N1CCN(c2ccc(Br)cc2)C(=O)[C@@H]1C | -12 | 1.14
51 | CC(=O)NCc1ccc(Br)cc1Cl | 1 | -0.11
52 | Cc1nc(C)n(C2CN(C(=O)c3cnc4sc(C)cn4c3=O)C2)n1 | -12 | 1.61
53 | CC(C)C(C)(C)CNC(=O)NC1CCCC1CCO (configuration not stated) | -11 | 1.36
54 | CCN(CC)c1nc2cc(C(=O)NCc3ccccc3)ccc2c(=O)n1Cc1ccccc1 | 1 | -0.11
55 | O=C(COc1ccc(-c2ccccc2)cc1Cl)N1CCOCC1 | 13 | -1.65
56 | O=C(N[C@H]1CCOC[C@@H]1Oc1cccc(F)c1)c1ccncc1Cl | -9 | 1.12
57 | O=C(C[C@H]1COCCN1Cc1cn2ccccc2n1)c1ccco1 | -7 | 1.25
58 | Cc1ccc(-n2cccc2CC(=O)NCCCN2CCCCC2)cc1 | -6 | 0.88
59 | O=C(c1ccc2nncn2c1)N1CC(F)C1 | 13 | -2.32
60 | CN(Cc1noc(C2CC2)n1)OCc1ccccc1 | -9 | 1.28
61 | COc1ccc(C2=Nc3nc4ccccc4n3/C2=N\O)cc1 | -13 | 1.54
62 | COc1ccc(OC)c(NC(=O)[C@]2(C)CCCCC(=O)N2)c1 | -17 | 1.94
63 | Cc1ccnc(-c2cnn([C@@H]3CCCCO3)n2)c1 | -17 | 2.29
64 | CC[C@]1(C(=O)O)CCCN(Cc2cnc(-c3cccc(C)c3)nc2)C1 | -17 | 2.24
65 | O=C(c1cccs1)N1CCN(Cc2ccc(-c3cccc(F)c3)s2)CC1 | 5 | -0.43
66 | CC[C@@H](CN(C)C)Nc1cc(C)nc2ccnn12 | 3 | -0.65

Row | Structure (SMILES) | % Inhibition [%] | Z score
67 | Cn1cccc1-c1cc(-c2ncnn2CC(C)(C)O)[nH]n1 | -18 | 1.7
68 | Cn1cccc1[C@@H](O)CCNC(=O)Nc1cccs1 | -11 | 1.64
69 | CCS(=O)(=O)Nc1ccc(C)n(CC(=O)NCc2c(C)cc(C)cc2C)c1=O | -14 | 1.81
70 | c1ccc(N2CCN(CN3CCCn4c(-c5cnccn5)nnc43)CC2)cc1 | 1 | -0.23
71 | CCn1cc(CNc2ccccc2CC(N)=O)cn1 | -16 | 2.14
72 | O=C(NC1CCCCCCC1)c1c(Cl)cccc1Cl | 3 | -0.4
73 | O=C1CN(Cc2cnc(NCc3ccccc3)nc2)CCN1 | 3 | -0.47
74 | O=C(Nc1ccncc1)c1cnc2ccccc2n1 | -9 | 1.04
75 | Cc1ccc(C(=O)NC2(c3cc(F)cc(F)c3)CC2)c(OCCCN)c1 | -5 | 0.91
76 | CC1CC(C(=O)O)CN(C(=O)Nc2cccc(NC(=O)c3ccccc3)c2)C1 (configuration not stated) | -7 | 1.26
77 | O=C(CN1CCCCC1)Nc1cc(C2CC2)nn1-c1ccccc1 | 1 | -0.24
78 | CC[C@H]1CCCCN1C(=O)c1cc(-c2ccc(C)s2)nc2ccccc12 | -12 | 1.82
79 | Cc1c(C(=O)NCC2(Cc3ccc(Br)cc3)CC2)cnn1C | -11 | 1.15
80 | Cc1cc(-c2cn3cc(C(=O)NCCF)nc3c(=O)n2CC2CC2)c(C)o1 | 6 | -0.85
81 | Cc1ccc2c(c1)C(C)(C)C(=O)N2CC(=O)N1CCN(c2ccccc2)CC1 | -11 | 1.83
82 | Cc1nc(C)c(C(=O)NCC2CCC(c3nc4ccccc4[nH]3)CC2)s1 (configuration not stated) | -3 | 0.49
83 | C=CCN(CC(F)(F)F)C(=O)c1csc(CN)n1 | -5 | 0.88
84 | Cn1c(=O)c2c(ncn2[C@H]2CCc3ccccc3NC2=O)n(C)c1=O | 29 | -3.23
85 | Cc1cccnc1C(C)(C)CNC(=O)C1(c2cccnc2)CCCC1 | 1 | -0.11
86 | CCn1nc(C)c([C@H](C)NS(=O)(=O)N2CCN(C)CC2)c1C | -9 | 1.23
